# In ChEMBL document CHEMBL5606460, “ASAP - DENV-2 NS2B-NS3 protease fluorescence single point” (2024):
# Screen size: about 2,000 compounds; about 110 (5.5%) showed an effect of 50% or more. The list shows a part of the results.
# Target: Genome polyprotein (dengue virus type 2) (UniProt P29990)
# [1] = Thailand/16681/1984, Concentration 25.0 uM, Number of replicates 1.0
smiles,measurement,setting,value
Cc1cc(CO)c2cccc(NC(=O)Cc3cccc(CN)c3)c2n1,inhibition,"Thailand/16681/1984, Concentration 49.95 uM, Number of replicates 2.0, Standard deviation 1.2018993187616485 %",15.4%
same,inhibition,"Thailand/16681/1984, Concentration 99.9 uM, Number of replicates 2.0, Standard deviation 0.39117400474888586 %",23.6%
NS(=O)(=O)c1ccc(CN2CC[C@H](c3c[nH]c4ccccc34)C2)cc1,inhibition,"Thailand/16681/1984, Concentration 49.5 uM, Number of replicates 2.0, Standard deviation 3.0170194361417653 %",-0.147%
same,inhibition,"Thailand/16681/1984, Concentration 99.01 uM, Number of replicates 2.0, Standard deviation 4.2466169051015 %",1.94%
same,inhibition,"Thailand/16681/1984, Concentration 198.0 uM, Number of replicates 2.0, Standard deviation 3.715968526211635 %",3.94%
CN(C)Cc1ccc(NCc2ccc(N3CCN(C)CC3)cc2)nc1,inhibition,"Thailand/16681/1984, Concentration 49.5 uM, Number of replicates 2.0, Standard deviation 2.616869754240302 %",-3.53%
same,inhibition,"Thailand/16681/1984, Concentration 99.01 uM, Number of replicates 2.0, Standard deviation 3.1418138943590055 %",-3.88%
same,inhibition,"Thailand/16681/1984, Concentration 198.0 uM, Number of replicates 2.0, Standard deviation 2.0894730047130525 %",-3.69%
Cc1cc(CO)c2cccc(Cc3cccc(C(=O)NCc4ncc[nH]4)c3)c2n1,inhibition,"Thailand/16681/1984, Concentration 49.95 uM, Number of replicates 2.0, Standard deviation 0.223500691555814 %",-5.07%
same,inhibition,"Thailand/16681/1984, Concentration 99.9 uM, Number of replicates 2.0, Standard deviation 0.46496774169485194 %",-5.63%
NCc1cccc(NC(=O)[C@@H](NC(=O)OCc2ccccc2)C(C2CCC2)C2CCC2)c1,inhibition,"Thailand/16681/1984, Concentration 49.5 uM, Number of replicates 2.0, Standard deviation 1.0931409988329541 %",0.575%
same,inhibition,"Thailand/16681/1984, Concentration 99.01 uM, Number of replicates 2.0, Standard deviation 7.259842534821406 %",21.9%
same,inhibition,"Thailand/16681/1984, Concentration 198.0 uM, Number of replicates 2.0, Standard deviation 0.026391345013157583 %",99.8%
CCN(C(=O)C1CCN(c2ccc(C=O)cc2)CC1)[C@H]1CCOC(C)(C)C1,inhibition,[1],13%
O=Cc1ccc(N2CCC(C(=O)NCc3cc(-c4ccc(Cl)cc4)on3)CC2)cc1,inhibition,[1],1.65%
C[C@H](NC(=O)C1CCN(c2ccc(C=O)cc2)CC1)C12CC3CC(CC(C3)C1)C2,inhibition,[1],15%
Cc1cc(CO)c2cccc(C[C@H](NC(=O)Cc3nnc(C)[nH]3)C(=O)O)c2n1,inhibition,"Thailand/16681/1984, Concentration 49.95 uM, Number of replicates 2.0, Standard deviation 0.7154639954840757 %",4.77%
same,inhibition,"Thailand/16681/1984, Concentration 99.9 uM, Number of replicates 2.0, Standard deviation 0.7742416532425804 %",13.3%
OC1CCN(Cc2c[nH]c3ccccc23)CC1,inhibition,"Thailand/16681/1984, Concentration 49.5 uM, Number of replicates 2.0, Standard deviation 2.3223002037884486 %",-3.12%
same,inhibition,"Thailand/16681/1984, Concentration 99.01 uM, Number of replicates 2.0, Standard deviation 2.9172253083494284 %",-2.25%
same,inhibition,"Thailand/16681/1984, Concentration 198.0 uM, Number of replicates 2.0, Standard deviation 2.845140204642094 %",-1.14%
CCOCc1nc(Cn2cc(C3CCNCC3)c(C)n2)cs1,inhibition,"Thailand/16681/1984, Concentration 49.5 uM, Number of replicates 2.0, Standard deviation 0.8755520139100964 %",-1.44%
same,inhibition,"Thailand/16681/1984, Concentration 99.01 uM, Number of replicates 2.0, Standard deviation 1.6845203733224097 %",-1.51%
same,inhibition,"Thailand/16681/1984, Concentration 198.0 uM, Number of replicates 2.0, Standard deviation 0.07156608634134701 %",0.2%
O=Cc1ccc(N2CCC(C(=O)N(CCc3ccccc3)C3CCCC3)CC2)cc1,inhibition,[1],12.7%
Cc1cc(CO)c2cccc(Cc3cccc(C(=O)N4CCC(CN)CC4)c3)c2n1,inhibition,"Thailand/16681/1984, Concentration 49.95 uM, Number of replicates 2.0, Standard deviation 0.03521723226612688 %",98.6%
same,inhibition,"Thailand/16681/1984, Concentration 99.9 uM, Number of replicates 2.0, Standard deviation 0.007908771829372243 %",98.5%
CN(C)Cc1cccc(CNC(=O)C2CCN(c3ccc(C=O)cc3)CC2)c1,inhibition,[1],11.4%
Cc1cnccc1NC(=O)c1csc(CC(C)C)n1,inhibition,"Thailand/16681/1984, Concentration 49.5 uM, Number of replicates 2.0, Standard deviation 0.5845342205291042 %",-0.596%
same,inhibition,"Thailand/16681/1984, Concentration 99.01 uM, Number of replicates 2.0, Standard deviation 0.6476682292332556 %",0.642%
same,inhibition,"Thailand/16681/1984, Concentration 198.0 uM, Number of replicates 2.0, Standard deviation 0.2857360767661525 %",2.78%
Cc1cc(CO)c2cccc(Cc3ccccc3NC(=O)c3nc(N)n[nH]3)c2n1,inhibition,"Thailand/16681/1984, Concentration 49.95 uM, Number of replicates 2.0, Standard deviation 1.581349166072865 %",0.804%
same,inhibition,"Thailand/16681/1984, Concentration 99.9 uM, Number of replicates 2.0, Standard deviation 1.2268610426733166 %",4.88%
Cc1n[nH]c(NC(=O)C2CCN(c3ccc(C=O)cc3)CC2)c1Br,inhibition,[1],12.1%
CC(=O)Nc1ccc(C(=O)Nc2cccc(Cc3cccc4c(CO)cc(C)nc34)c2)cn1,inhibition,"Thailand/16681/1984, Concentration 49.95 uM, Number of replicates 2.0, Standard deviation 1.3917429700895119 %",-2.81%
same,inhibition,"Thailand/16681/1984, Concentration 99.9 uM, Number of replicates 2.0, Standard deviation 0.3587453765676338 %",0.959%
CN1CCC(C#N)(C(=O)N2CC(NC(=O)c3ccc4[nH]c(N(C)C)nc4c3)C2)CC1,inhibition,"Thailand/16681/1984, Concentration 49.5 uM, Number of replicates 2.0, Standard deviation 1.0687011266628357 %",-0.915%
same,inhibition,"Thailand/16681/1984, Concentration 99.01 uM, Number of replicates 2.0, Standard deviation 1.1266884994016249 %",0.418%
same,inhibition,"Thailand/16681/1984, Concentration 198.0 uM, Number of replicates 2.0, Standard deviation 1.3635152868867346 %",2.18%
O=Cc1ccc(N2CCC(C(=O)Nc3nc4c(Cl)cccc4s3)CC2)cc1,inhibition,[1],13.4%
CN(C)Cc1cc(CNc2cc(Cl)cc(C(=O)NC(C)(C)CO)c2)ccc1O,inhibition,"Thailand/16681/1984, Concentration 49.5 uM, Number of replicates 2.0, Standard deviation 0.18311558131267536 %",-4.3%
same,inhibition,"Thailand/16681/1984, Concentration 99.01 uM, Number of replicates 2.0, Standard deviation 1.0273017841204188 %",-5.89%
Cc1c(C(=O)N[C@@]2(C)CCN(Cc3cnn[nH]3)C2)ccc(O)c1NC(=O)c1ccncc1F,inhibition,"Thailand/16681/1984, Concentration 49.5 uM, Number of replicates 2.0, Standard deviation 1.4737053563327684 %",-3.39%
same,inhibition,"Thailand/16681/1984, Concentration 99.01 uM, Number of replicates 2.0, Standard deviation 1.2620179206523758 %",-3.3%
same,inhibition,"Thailand/16681/1984, Concentration 198.0 uM, Number of replicates 2.0, Standard deviation 0.0004767651503552333 %",-1.52%
O=Cc1ccc(N2CCC(C(=O)N3CCN(C/C=C/c4ccccc4)CC3)CC2)cc1,inhibition,[1],10.7%
O=Cc1ccc(N2CCC(C(=O)N3CCN(C(=O)c4ccc(O)cc4)CC3)CC2)cc1,inhibition,[1],12.3%
